Values joined by “and” are separate entries in the source; they are usually repeats but may differ in a detail not shown here. Identical values can stand only once. This list was built around the results that the source calls inconclusive (neither active nor inactive); the mix of calls is not that of the screen. The call rests on the fitted dose curve; in most records, active means well fitted inhibition curve with a large enough effect in the signal ratio in the repeat runs (not every such curve was filed as active); inconclusive means weak or mixed curves; inactive means flat fitted curve, though single readings scatter; the % refers to the signal ratio. Potencies beside an inconclusive call are fits to weak or partial responses and may not hold up.
Test: qHTS assay to identify small molecule antagonists of the TGF-beta/Smad signaling pathway (AID 1346924)
Settings: SBE-bla HEK293T, TGF-beta/Smad reporter, beta-lactamase ratio; activity, negative = inhibition: at 76.8 µM (top of the series) unless noted
Procedure, shortened: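 Read-out was FRET-substrate fluorescence (405 nm excitation; 460 and 530 nm emission) after 2 h at room temperature. Before that, cells carrying a Smad-binding-element beta-lactamase reporter in HEK 293T had been stimulated 5 h at 37 C with TGF-beta1 (0.25 ng/mL addition solution) in the presence of test compound.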
Potency means the concentration at half of the fitted maximal effect; tags describe the fitted curve by direction and shape or compound fluorescence and quenching.

Row | SMILES | activity, negative = inhibition | Potency
1 | COC(=O)C(C)Oc1ccc(Oc2ccc(Cl)cc2Cl)cc1 (stereo not drawn) | inconclusive: -14.9% | –
2 | CC1=C(C(=O)Nc2ccccc2)SCCO1 | inconclusive: -36.1% | –
3 | ClCc1ccccc1 | inconclusive: -13.4% | –
4 | c1cc2ccc3cccc4ccc(c1)c2c34 | inconclusive: -32.6% | –
5 | CN(C)C1CSSSC1 | inconclusive: -41.8% | –
6 | CN=C=S | inconclusive: 0.216% | –
7 | CCOc1cc(Oc2ccc(C(F)(F)F)cc2Cl)ccc1[N+](=O)[O-] | inconclusive: -9.38% | –
8 | CC(C)Nc1ccc(Nc2ccccc2)cc1 | inconclusive: -18.5% and inconclusive: 0.226% | –
9 | COP(=S)(OC)Oc1nc(Cl)c(Cl)cc1Cl | inconclusive: 1.43% | –
10 | CC(C)(C)C(O)C(Oc1ccc(-c2ccccc2)cc1)n1cncn1 (stereo not drawn) | inconclusive: -7.13% | –
11 | CC(Oc1ccc(Cl)cc1Cl)C(=O)O (stereo not drawn) | inconclusive: 1.08% | –
12 | CC(C)OC(=S)S | inconclusive: -13.6% | –
13 | Nc1ccccc1C(=O)OC/C=C/c1ccccc1 | inconclusive: -6.15% | –
14 | O=C(CCl)c1ccccc1 | inconclusive: 0.749% | –
15 | CCCN(CCC)c1c([N+](=O)[O-])cc(C(C)C)cc1[N+](=O)[O-] | inconclusive: -27.9% | –
16 | CN(C)C(=S)[S-].CN(C)C(=S)[S-].[Cu+2] | – | inconclusive: 3.77 µM [rising, partial curve]
17 | OC(c1ccc(Cl)cc1)(c1cncnc1)c1ccccc1Cl (stereo not drawn) | inconclusive: -0.447% | –
18 | [Cl][Sb]([Cl])[Cl] | inconclusive: 1.57% | –

Source: PubChem BioAssay (Tox21)
